Hit rate of the full screen: of about 44,000 compounds, about 340 (0.77%) were called active. About 5% were inconclusive and are not listed. The call rests on the fitted dose curve; in most records, active means well fitted inhibition curve with a large enough effect; inconclusive means small, poorly fitted or top-dose-only effect; inactive means flat fitted curve, though single readings scatter. Some of the results follow.
assay: Acumen qHTS Assay for Inhibitors of the mTORC1 Signaling Pathway in MEF (Tsc2-/-, p53-/-) Cells: Sytravon; details: phospho-rpS6 immunofluorescence/PI, 24 h; series mostly up to 38.3 µM; activity change, negative = inhibition: at the top concentration;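 further: plate controls were DMSO for no effect and rapamycin for full effect; nearly all actives have a fitted effect of over 50% in size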
Method in brief: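 Tsc2-/-, p53-/- MEFs (empty-vector stable line) in DMEM + 10% FBS were treated with compounds 24 h at 37 degree Celsius, fixed, and immunostained for phospho-rpS6 (Alexa-488) with propidium iodide counterstain. Laser-scanning cytometry gave % positive cells, normalized against 7.5 nM rapamycin and DMSO.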

Activity change, negative = inhibition, inactive:
CCOc1ccc(C2CC(=O)c3c([nH]c(C(=O)OC4CCCCCC4)c3C)C2)cc1 (configuration not stated) -14.7%
CC1=C(C(=O)OC2CCCCCC2)C(c2c(Cl)cccc2Cl)CC(=O)N1 (configuration not stated) -1.97%
Cc1nn(C)c2c1c(C(F)(F)F)cc(=O)n2C(C)C(=O)NCc1ccccc1 (configuration not stated) -14.7%
CCOCCc1nn2c(=O)cc(COC(=O)c3ccc4c(c3)OCO4)nc2s1 -2.92%
COc1ccc(-c2nc(CS(=O)CC(=O)NCc3ccccc3Cl)c(C)o2)cc1OC (configuration not stated) -12%
Cn1c(C(=O)Nc2cccc(Cl)c2)cc2c(=O)n(C)c3ccccc3c21 -1.96%
O=S(=O)(c1ccc(Br)cc1)N1CCn2cccc2C1c1ccc(Br)cc1 (configuration not stated) -12.2%
Cc1ccc(CNc2nc3nc(C)c(Cl)c(C)n3n2)cc1 -6.38%
Cc1ccc(-c2cn3c(n2)sc2cc(C(=O)NC4CCCCCC4)ccc23)c(C)c1 9.34%
Cc1ccc(Cl)cc1N1CCN(C(=O)C2CCN(S(=O)(=O)c3c(C)noc3/C=C/c3ccccc3F)CC2)CC1 -15.4%
Cc1oc2c(c(C)cc3oc(=O)c(CC(=O)NCCc4ccc(Cl)cc4)c(C)c32)c1C 1.86%
Cc1cccc(NC(c2nnc(-c3ccccc3)o2)c2ccc(F)cc2Cl)c1C (configuration not stated) -0.856%
O=C(NCc1ccccc1)c1ccc2c(c1)sc1nc(-c3ccc(F)cc3)cn12 -3.83%
CC(C)c1nn2c(=O)cc(COC(=O)COc3ccccc3F)nc2s1 -12.9%
CCc1ccccc1NC(=O)CSc1nc2ccccc2nc1Cc1cccc(OC)c1 -16.4%
COc1cccc(-c2cn3c(n2)sc2cc(C(=O)NCCc4ccccc4)ccc23)c1 5.76%
Cc1ccc(C)c(N2CCN(CCCNC(=O)c3ccc4nc(C(C)C)oc4c3)CC2)c1 -6.4%
Cc1cc(-c2ccc(C)c(S(=O)(=O)N(C(C)C)C3CCCCC3)c2)on1 -4.73%
O=C(O)CCSc1nnc(-c2ccc(Cl)cc2Cl)o1 2.16%
CC1(C)O[C@H]2[C@@H](O1)[C@@H](C(=O)Nc1cc(F)ccc1F)O[C@@H]1OC(C)(C)O[C@@H]12 -9.38%
Cc1cccc(-c2cc(C(=O)O)c3c(-c4ccc(F)cc4)[nH]nc3n2)c1 -10.2%
Cc1ccc2nc(N(Cc3cccnc3)C(=O)CCc3ccccc3)sc2c1 -5.43%
COc1ccc(-c2nc3n(n2)C(c2cccc(C)c2)C(C(N)=O)=C(C)N3)cc1OC (configuration not stated) -17.4%
CC(=O)c1ccc(NC(=O)c2nn(C)c3c2CS(=O)(=O)c2ccccc2-3)cc1 3.9%
Cc1cccc(NC(=O)c2ccc(F)c(S(=O)(=O)N3CCN(c4ccc(F)cc4)CC3)c2)c1 13.2%
CCOC(=O)C1=C(CN2CCCCC2)NC(=O)NC1c1ccc(OC)cc1 (configuration not stated) -0.0611%
Cc1ccc(-c2cn3c(n2)sc2cc(C(=O)NC4CCCCC4)ccc23)cc1 -9.74%
CCOc1ccccc1NC(=O)c1cn(C2CCCCC2)c(=O)c2c1c1ccccc1n2C -2.28%
COc1ccc(CCNC(=O)CCn2c(=O)c3cccn3c3ccc(F)cc32)cc1OC -23.2%
NS(=O)(=O)c1ccc(CCNC(=O)CCn2c(=O)c3cccn3c3cccnc32)cc1 -3.24%
Cc1cc(F)ccc1NC(=O)CN1C(=O)CCc2cc(S(=O)(=O)N3CCOCC3)ccc21 2.61%
Cc1ccc(-n2ncc(C(=O)N(C)Cc3ccccc3)c2-n2cccc2)cc1 0.942%
Cc1cc(Br)ccc1NC(=O)C(NS(=O)(=O)c1cccs1)c1ccccc1 (configuration not stated) -3.93%
COc1ccc(Cl)cc1NC(=O)c1cc2nc(-c3ccc(C)cc3)cc(C(F)(F)F)n2n1 -16.5%
CC(CNC(=O)c1cc2ccccn2n1)c1ccccc1 (configuration not stated) 7.26%
CSc1nc(C)cc(Nc2cccc(C(=O)O)c2)n1 -0.775%
CCOC(=O)C(C)Nc1ncnc2onc(C)c12 (configuration not stated) -7.31%
COc1cc(NC(=O)CCCN2C(=O)CCn3nc(-c4cn(C)c5ccccc45)cc32)cc(OC)c1 0.666%
O=C(c1cnc(N2CCCCC2)c2ccccc12)N1CCN(c2ccc(F)cc2)CC1 0.4%
Fc1ccc(Nc2nc(-c3ccc(F)cc3)c3c(n2)-c2ccccc2OC3)cc1 -0.221%
Cc1c(NC(=O)c2ccc(-c3ccc(F)cc3)o2)cccc1-c1nc2ncccc2o1 -7.46%
COc1cccc(C(=O)Nc2ccc3nc(SCC(=O)N4CCc5ccccc54)sc3c2)c1 1.41%
Cc1sc2c(c1C)c(=O)n(-c1ccc(Cl)cc1)c(=O)n2CC(=O)c1ccccc1 7.16%
COc1cccc(CNC(=O)c2ccc3c(c2)sc2nc(-c4ccccc4)cn23)c1OC 6.51%
O=c1[nH]c2ccc(S(=O)(=O)Nc3cc(Cl)ccc3O)cc2o1 2.66%
CCOc1ccccc1CNC(=O)c1cc2oc3ccccc3c2n1CC -0.647%
Cc1ccc(-c2nc3scc(CCNS(=O)(=O)c4c(C)noc4C)n3n2)cc1 -0.525%
Cc1cc(C)cc(NC(=O)c2cc3c(=O)n(Cc4ccco4)ccc3nc2C)c1 -5.25%
Cc1nc2c(-c3ccc(F)cc3)c(C)nn2c(C)c1CCC(=O)NCc1cccc(Cl)c1 -6.86%
CCC(=O)N1CCc2cc(Br)cc(S(=O)(=O)N3CCN(c4cccc(Cl)c4)CC3)c21 2.26%
O=C(OCC1CCCO1)c1ccc2c(c1)N(Cc1cccc(F)c1)C(=O)c1ccccc1S2(=O)=O (configuration not stated) 3.15%
CC1CCc2nc(NC(=O)Cc3ccc(Cl)cc3)sc2C1 (configuration not stated) -3.31%
CCOc1cccc(C2c3[nH]c4ccccc4c3CCN2C(=O)Cc2cccc(OCC)c2OCC)c1 (configuration not stated) -1.91%
Cc1cc2c(cc1S(=O)(=O)CCC(=O)N(C)Cc1ccccc1)OCC(=O)N2 5.99%
COc1ccc2c(CNCCc3ccccc3OC)c(C(=O)O)n(Cc3ccc(F)cc3Cl)c2c1 -20.1%
CSc1cccc(NC(=O)N2CCN(S(=O)(=O)c3ccc4c(ccn4C)c3)CC2)c1 -1%
CC1=C(C(=O)OC2CCCC2)C(c2ccc(Cl)cc2)CC(=O)N1 (configuration not stated) -2.84%
O=C(CSc1nc(-c2ccccc2)no1)N1CCN(c2ccc(F)cc2)CC1 8.98%
COc1ccc(C2=NS(=O)(=O)N(C)C(C(=O)NC(C)c3ccccc3)=C2)cc1OC (configuration not stated) 1.15%
Cc1cc(C)cc(NC(=O)CN(c2cccc(C)c2C)S(=O)(=O)c2ccccc2)c1 -12.8%
COc1cccc(N2C(=O)CSC23C(=O)N(Cc2ccccc2F)c2ccccc23)c1 (configuration not stated) -10.5%
Cc1cccc(NC(=O)C2CCN(S(=O)(=O)c3c(C)noc3/C=C/c3ccco3)CC2)c1C 6.67%
COc1ccc(-c2nc(SCCOc3cc(C)ccc3C(C)C)n3[nH]c(=O)cc3n2)cc1 -1.87%
CCOc1cc(Cl)c(S(=O)(=O)n2cc(C)nc2CC)cc1Cl -1.82%
CN(C)c1ccc(CNS(=O)(=O)c2csc(C(N)=O)c2)cc1 -26.9%
COc1cccc(NC(=O)Nc2cc(-c3cn4cccnc4n3)ccc2OC)c1 -4.57%
CCn1cc2nc(SCc3ccccc3)n(Cc3ccc(C)cc3)c(=O)c2n1 6.34%
O=C(NCC(c1ccco1)S(=O)(=O)c1cccs1)c1ccc(C(F)(F)F)cc1 (configuration not stated) -0.629%
Cc1ccccc1NC(=O)CSc1nc2ccc(NC(=O)c3ccco3)cc2s1 -6.67%
COc1ccc(C)cc1NC(=O)c1cc(S(=O)(=O)NCCC2=CCCCC2)ccc1F -9.85%
Clc1ccc(-c2noc3ncnc(N4CCCCC4)c23)cc1 -24.3%
COc1ccc(-c2noc(CSc3nnc(C)n3-c3ccc(C)cc3)n2)cc1 -14.8%
COc1ccc(N2CC(C(=O)Nc3ccccc3-c3nc(-c4ccc(C)cc4)no3)CC2=O)cc1 (configuration not stated) -9.69%
COc1ccc(C(=O)NCCc2nc3ccccc3[nH]2)cc1 -1.25%
CCOc1ccc(C(CC(=O)Nc2ccc(C(=O)OC)cc2)N2Cc3ccccc3C2=O)cc1OC (configuration not stated) 0.612%
CC(C)(C)c1ccc(OCc2cc(=O)n3c4c(sc3n2)CCCC4)cc1 -4.72%
Cc1ccccc1CSCc1ccc(C(=O)NCCc2ccccc2)o1 2.26%
O=C(COc1ccc(F)cc1)OCc1cc(=O)n2nc(C3CC3)sc2n1 0%
Cc1ccc(CCNC(=O)C2CCCN(S(=O)(=O)c3ccc4c(c3)oc(=O)n4C)C2)cc1 (configuration not stated) 4.98%
CCc1ccc(-n2nc(C)c3c(C)cc(=O)n(CC(=O)N(CC)Cc4ccccc4)c32)cc1 3.08%
CCc1ccc(C(=O)c2cn(Cc3ccccc3)c3cc(OC)c(OC)cc3c2=O)cc1 -11.4%
Oc1c(C(c2ccc(Cl)cc2Cl)N2CCCC2)sc2nc(-c3ccco3)nn12 (configuration not stated) -10.2%
CCOc1ccc(CCNC(=O)CCSCc2cccc(Cl)c2)cc1OCC 8.22%
CCc1ccccc1NC(=O)COC(=O)c1cn(CC)c2nc(C)ccc2c1=O -1.89%
CCCCOC(=O)c1ccc(Nc2nc3ccc(C)cc3n3cnnc23)cc1 -2.04%
CN(C)c1ccc(NC(=O)C2(c3cccs3)CCOCC2)cc1 -5.38%
O=C(Nc1cc(Cl)ccc1O)c1cc2nc(-c3ccc4c(c3)OCO4)cc(C(F)(F)F)n2n1 -13.5%
O=C(CSCc1ccc(F)cc1)N1CCc2c([nH]c3ccccc23)C1c1ccccc1 (configuration not stated) -0.795%
CCCOc1ccc(Cn2c(=O)sc3ccccc32)cc1 -12.7%
O=C(CC(=O)Nc1ccccc1F)Nc1ccc2nc3n(c(=O)c2c1)CCCCC3 0.473%
Cc1ccc(-c2nc(SCC(=O)Nc3cc(C)on3)c3c(=O)n(C)c(=O)n(C)c3n2)cc1 -29.5%
Cc1cccc(N2CCN(C(=O)c3ccc4c(c3)N(Cc3cccc(Cl)c3)C(=O)c3ccccc3S4=O)CC2)c1C (configuration not stated) -11.7%
COc1ccccc1NC(=O)c1c(NC(=O)c2cccs2)sc2c1CCC(C(C)(C)C)C2 (configuration not stated) 4.63%
CCCCCNc1nc2c(-c3ccccc3)nnn2c2ccccc12 -11.1%
CCc1ccc(OC(=O)c2sc3ncn(Cc4cccc(F)c4)c(=O)c3c2C)cc1 -4.64%
Cc1ccc(NC(=O)c2cc(-c3cccs3)nc3ccccc23)c(C)c1 -10.6%
CC(C)CCn1c(=O)c2sccc2n2c(CCCC(=O)Nc3ccc(F)c(Cl)c3)nnc12 4.47%

From PubChem BioAssay AID493208 (National Center for Advancing Translational Sciences (NCATS), 2011)
